Values joined by “and” are separate entries in the source; they are usually repeats but may differ in a detail not shown here. Equal values may be shown once. The shares of active, inactive and inconclusive entries below differ from those in the screen. Potencies of inconclusive entries are doubtful fits and often do not repeat. Active and inactive are the calls of the source. Calls follow the shape of the dose curve; as a rule, active = well fitted inhibition curve with a large enough effect; inconclusive = small, poorly fitted or top-dose-only effect; inactive = flat fitted curve, though single readings scatter.
The compounds below were run on Zika virus NS2B-NS3 protease (assay: Primary screen GU AMC qHTS for Zika virus inhibitors (AID 1347154; also: nearly all actives have a fitted effect of over 70% in size;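 as to activity change, negative = inhibition: 0% = no-inhibitor control and -100% = no-enzyme control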)). Settings: Zika NS2B-NS3 unlinked protease, AMC fluorogenic substrate; series mostly up to 54.1 µM; activity change, negative = inhibition: at the top concentration.
In short: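 Unlinked Zika NS2B hydrophilic domain/NS3 protease domain noncovalent complex (25 nM final) in 10 mM Tris-HCl pH 8.0, 0.01% Tween 20, with AMC peptide substrate. Fluorescence (ex 340, em 450 nm) change over 15 min, room temperature; percent inhibition fitted to 4-parameter Hill equation.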
Potency is read from the fitted curve at half-maximal effect; tags tell the direction and shape of the fitted curve.

Structure (SMILES) | Potency | activity change, negative = inhibition
Cc1[nH]nc2ccc(-c3cncc(OC[C@@H](N)Cc4ccccc4)c3)cc12 | inconclusive: 27.1 µM [inhibitor, single point] | –
CC(=O)NCCC(=O)N[C@@H](CCC(N)=O)C(=O)N[C@@H](CO)C(=O)N[C@@H](CCC(N)=O)C(=O)N[C@@H](CCC(N)=O)C(=O)N[C@H](C(=O)N[C@@H](Cc1ccccc1)C(=O)N[C@]1(C)CCCCCCC=CCCC[C@@](C)(C(=O)N[C@@H](CCC(N)=O)C(=O)N[C@@H](CC(N)=O)C(N)=O)NC(=O)[C@H](CC(C)C)NC(=O)[C@H](CC(C)C)NC(=O)[C@@H](CCCNC(=N)N)NC(=O)[C@H](Cc2c[nH]c3ccccc23)NC(=O)[C@H](CC(C)C)NC(=O)[C@H](CC(N)=O)NC1=O)[C@H](C)O | inconclusive: 42.9 µM [inhibitor, single point] | –
C=CCn1c(=O)c2cnc(Nc3ccc(N4CCN(C)CC4)cc3)nc2n1-c1cccc(C(C)(C)O)n1 | inconclusive: 21.5 µM [inhibitor, partial curve] | –
CC(Cc1ccc(O)c(O)c1)(NN)C(=O)O (centres undefined) | inconclusive: 34.1 µM [inhibitor, single point] | –
O=C(C=Cc1c(C(=O)O)[nH]c2cc(Cl)cc(Cl)c12)Nc1ccccc1 | inconclusive: 21.5 µM [inhibitor, partial curve] | –
N#CC[C@H](C1CCCC1)n1cc(-c2ncnc3[nH]ccc23)cn1 | active: 24.1 µM | –
CC(=O)O[C@@]12CO[C@H]1C[C@H](O)[C@@]1(C)C(=O)[C@H](O)C3=C(C)[C@@H](OC(=O)C(O)[C@@H](NC(=O)OC(C)(C)C)c4ccccc4)C[C@@](O)([C@@H](OC(=O)c4ccccc4)[C@@H]21)C3(C)C (some centres undefined) | – | inactive: 6.61%
Nc1nc(=O)n([C@H]2CSC(CO)O2)cc1F (some centres undefined) | inconclusive: 0.003 µM [inhibitor, full curve, poor fit] | –
N#CC(=C(O)c1ccc(Cl)cc1Cl)c1nc2cc(Cl)ccc2c(=O)[nH]1 | inconclusive: 4.82 µM [inhibitor, partial curve] | –
COc1c(Cl)cc2c([nH]c3cnccc32)c1NC(=O)c1cccnc1C | inconclusive: 38.3 µM [inhibitor, partial curve, poor fit] | –
CN(CC(=O)N(Cc1ccc(C2CCCCC2)cc1)c1ccc(C(=O)O)c(O)c1)S(=O)(=O)c1c(F)c(F)c(F)c(F)c1F | inconclusive: 2.71 µM [inhibitor, full curve, poor fit] | –
Cc1ccc(-c2cc(C(F)(F)F)nn2-c2ccc(S(N)(=O)=O)cc2)cc1 | inconclusive: 16.1 µM [inhibitor, partial curve, poor fit] | –
CCOc1cc(C(=O)Nc2ccc(Cl)c(-c3nc4ccccc4[nH]3)c2)cc(OCC)c1OCC | inconclusive: 9.61 µM [inhibitor, full curve, poor fit] | –
CN(C)CCCN1c2ccccc2CCc2ccc(Cl)cc21 | inactive | –
CCCCN1CCC(CNC(=O)c2c3n(c4ccccc24)CCCO3)CC1 | inconclusive: 24.1 µM [inhibitor, partial curve] | –
C=C1c2cccc(O)c2C(O)=C2C(=O)[C@@]3(O)C(O)=C(C(N)=O)C(=O)[C@@H](N(C)C)[C@@H]3[C@@H](O)[C@H]12 | inconclusive: 42.9 µM [inhibitor, single point] | –
CCc1cc(C(C)=NOCc2ccc(C3CCCCC3)c(C(F)(F)F)c2)ccc1CN1CC(C(=O)O)C1 | inconclusive: 8.57 µM [inhibitor, partial curve] | –

Structure (SMILES) | Potency | activity change, negative = inhibition
CO[C@@H]1C(N(C)C(=O)c2ccccc2)C[C@H]2O[C@]1(C)n1c3ccccc3c3c4c(c5c6ccccc6n2c5c31)C(=O)NC4=O (some centres undefined) | inconclusive: 0.482 µM [inhibitor, full curve, poor fit] | –
Cc1cc(OCCCS(C)(=O)=O)cc(C)c1-c1cccc(COc2ccc3c(c2)OC[C@H]3CC(=O)O)c1 | inconclusive: 24.1 µM [inhibitor, partial curve] | –
COc1c(C)c2c(c(O)c1CC=C(C)CCC(=O)OCCN1CCOCC1)C(=O)OC2 | inconclusive: 21.5 µM [inhibitor, partial curve] | –
CC(Oc1ccc(O)cc1)(P(=O)(O)O)P(=O)(O)O | inconclusive: 7.64 µM [inhibitor, full curve, poor fit] | –
COc1ccc(Cn2ccc3ccc(C(=O)NO)cc32)cc1 | inconclusive: 21.5 µM [inhibitor, partial curve, poor fit] | –
COC(=O)[C@H](CCCN=C(N)N)NS(=O)(=O)c1ccc(C)cc1 | – | inactive: 15.8%
Cc1ccc2c(=O)c3cccc(CC(=O)O)c3oc2c1C | inconclusive: 21.5 µM [inhibitor, partial curve] | –
C=C1C(=CC=C2CCCC3(C)[C@@H]([C@H](C)C=CC=CC(O)(CC)CC)CC[C@@H]23)C[C@@H](O)C[C@@H]1O (some centres undefined) | inconclusive: 7.64 µM [inhibitor, partial curve, poor fit] | –
O=C(O)CCNC(=O)c1ccc(N=Nc2ccc(O)c(C(=O)O)c2)cc1 | inconclusive: 24.1 µM [inhibitor, partial curve] | –
C[C@]1(CO)CN(c2cc(C(=O)Nc3ccc4c(c3)-c3c(c(C(N)=O)nn3-c3ccc(F)cc3)CC4)c(Cl)cn2)C[C@@]1(C)CO | inconclusive: 42.9 µM [inhibitor, single point] | –
Clc1ccccc1CN1CCc2sccc2C1 | inactive | –
CCCCCCOC(=O)N=C(N)c1ccc(NCc2nc3cc(C(=O)N(CCC(=O)OCC)c4ccccn4)ccc3n2C)cc1 | inconclusive: 38.3 µM [inhibitor, single point] | –
COc1cc2c(c(OC)c1OC)-c1ccc(OC)c(=O)cc1[C@@H](NC(C)=O)CC2 | inconclusive: 1.36 µM [inhibitor, full curve, poor fit] | –
CC=C(C(=CC)c1ccc(O)cc1)c1ccc(O)cc1 | inconclusive: 15.2 µM [inhibitor, partial curve, poor fit] | –
CS(=O)(=O)Oc1ccc2c(NC(N)=O)c(C(=O)c3ccc(Cl)cc3Cl)oc2c1 | – | inactive: 0.655%
CCc1c2c(nc3ccc(OC(=O)N4CCC(N5CCCCC5)CC4)cc13)-c1cc3c(c(=O)n1C2)COC(=O)[C@]3(O)CC | active: 5.73 µM and inconclusive: 2.15 µM [inhibitor, full curve, poor fit] | –
CC(C)Oc1ccc(C(=O)N[C@H](CNC(=O)CN(C)C)Cc2ccc(-c3cn4cccc([C@H](C)O)c4n3)cc2)cc1Cl | inconclusive: 38.3 µM [inhibitor, single point] | –

— PubChem BioAssay (NCATS)
